The values below come from PubChem BioAssay AID1240 (Sanford-Burnham Center for Chemical Genomics, 2008).

Hit rate of the full screen: of about 50,000 compounds, about 800 (1.6%) showed an effect of 50% or more. This is one part of the list.

The target of this experiment is Bcl-2-like protein 10 (Homo sapiens) (UniProt Q9HD36). The experiment in a line: TR3 peptide-Bcl-B binding displacers, biochemical primary FP assay, phenotype converters (AID 1240).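 Note: 0% = Bcl-B with tracer peptide and DMSO and 100% = tracer peptide lacking Bcl-B.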 The settings on record: GST-Bcl-B / FITC-TR3 peptide fluorescence polarization; stronger effect = higher value; compound at 3.75 mg/L.
Sequence of UniProt Q9HD36 (Q9HD36 whole entry, looked up): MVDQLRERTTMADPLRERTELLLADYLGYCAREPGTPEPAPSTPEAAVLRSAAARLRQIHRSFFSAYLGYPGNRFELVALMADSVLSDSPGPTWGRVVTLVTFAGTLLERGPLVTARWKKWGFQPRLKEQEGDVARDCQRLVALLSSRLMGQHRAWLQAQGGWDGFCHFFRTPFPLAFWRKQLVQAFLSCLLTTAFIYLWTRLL
In the case of `O=C(CCC1CCCC1)Nc1ccc2c(c1)oc1ccccc12`, the displacement came out at 2.3%. Consider `Cc1ccc(N2C(=O)CC(Sc3ncccn3)C2=O)cc1` (stereo unspecified), for which the displacement was 3%. In the case of `O=C(Nc1ccccc1F)c1ccccc1C(F)(F)F`, the displacement was -9.6%. For `CC1CCCN(CN2C(=O)C(=O)c3cc(Br)ccc32)C1` (stereo unspecified), the displacement amounted to 10.1%.

Regarding `Cc1ccc(-n2c(C)cc(/C=N/NC(=O)c3cccnc3)c2C)c(C)c1`, the displacement is -30.1%.

`CCOC(=O)c1ccc(-c2ccc(C(=O)Nc3ccc(Cl)cc3)o2)cc1`: the displacement is -1.3%. With `CCOc1ccccc1C=Nc1ccccc1-c1ccccc1N=Cc1ccccc1OCC` the figure was -9.7%; with `COC(=O)C(=C/C=C/C=C/N(C)C)C(=O)OC`, 28.1%; with `CC(C)Oc1cccc(C(=O)N2CCC(Cc3ccccc3)CC2)c1`, -5.1%. To `CC1=CC(C)(C)N(CC(=O)c2ccc([N+](=O)[O-])cc2)c2ccccc21` belongs -3.5%; to `Cc1ccc(-c2nnc(-c3cccc(F)c3)o2)cc1`, 3.9%; to `O=C1C2C3C=CC(C4CC34)C2C(=O)N1CCc1ccccc1` (stereo unspecified), 0.1%. To `CCOC(=O)c1c(NC(=O)C(C)Oc2ccc(OC)cc2)sc2c1CCC2` (stereo unspecified) belongs -2.2%; to `O=S(=O)(Nc1cc(Cl)c(O)c2ccccc12)c1ccc2ccccc2c1`, 44%; to `O=[N+]([O-])c1ccc(Cl)c(S(=O)(=O)Nc2cc(Cl)ccc2Cl)c1`, 6.1%. For `O=C(COc1ccc(Br)cc1)N1CCc2ccccc2C1`, the displacement was -1.7%.

In the case of `COc1ccc(N(CC(N)=O)S(=O)(=O)c2ccccc2)cc1`, the displacement stood at 8.9%. To `Cc1nnc(SCC(=O)N2c3ccccc3C(C)(c3ccc(Br)cc3)CC2(C)C)s1` (stereo unspecified) belongs 7%. To `CCOc1ccccc1N1CCN(C(=O)c2cc(-c3ccccc3)nc3ccccc23)CC1` belongs 24.7%; to `CC(C)CC(=O)N1c2ccccc2NC2=C(C(=O)CC(C)(C)C2)C1c1ccc2c(c1)OCO2` (stereo unspecified), -19.7%. With `Brc1ccc(CN2CCN(Cc3ccccn3)CC2)cc1` the figure was -21.7%; with `COC(=O)c1c(NC(=O)c2cccc(Cl)c2)sc(C)c1C`, 39.9%.

For the molecule `COc1cc(C(=O)N/C(=C/c2ccco2)C(=O)Nc2ccccc2)cc(OC)c1OC`, the displacement worked out at 5.4%.

As for `O=C1NC(=O)N(c2ccccc2)C(=O)/C1=C/c1ccc(-c2ccccc2C(=O)O)o1`, the displacement was -17.2%.

Regarding `CS(=O)(=O)N1CCN(Cc2ccccc2[N+](=O)[O-])CC1`, the displacement came out at 12.7%. Turning to `CC(C)OCCCNC(=O)C(=O)Nc1cccc(Cl)c1Cl`, the displacement was 0.8%. With `Cc1cccc(C)c1NC(=O)C1CC(=O)N(c2ccc(Br)cc2)C1` (stereo unspecified) the figure was 7.3%; with `COc1ccc(S(=O)(=O)NCCc2ccccc2)cc1OC`, 3.9%.

Turning to `Cc1ccc(/C(O)=C/c2nc3ccccc3oc2=O)o1`, the displacement came to 116%. To `CCOC(=O)C1=C(c2ccccc2)N=c2s/c(=C\c3ccco3)c(=O)n2C1c1cccs1` (stereo unspecified) belongs -11%; to `COc1ccccc1-c1cc(C(=O)O)c2ccccc2n1`, -6%. To `COc1ccc(S(=O)(=O)N(CC(N)=O)Cc2ccccc2)cc1` belongs -15%; to `CC(C)=CCC/C(C)=C/CC(C)(C)C1OCCC(C)O1` (stereo unspecified), 14.1%. To `COc1ccccc1OCC(=O)Nc1ccc2c(c1)OCO2` belongs 11.8%; to `O=C(O)c1ccc([N+](=O)[O-])cc1C(=O)c1ccccc1`, -12.3%; to `COc1cc(-c2nc(-c3ccccc3)c(-c3ccccc3)[nH]2)ccc1OCC(=O)O`, 2.4%. As to `COc1cc2c(cc1OC)-c1nnc(C)n1C1(CCCC1)C2`, the displacement stood at 0%. On to `COc1ccccc1/C=C1/SC(=Nc2ccc(F)cc2)NC1=O`, for which the displacement stood at 161%.

`O=C(Nc1cc([N+](=O)[O-])ccc1C(=O)Nc1ccncc1)c1ccccc1`: the displacement is 12.9%. For the molecule `O=C(COC(=O)c1ccccc1NC(=O)c1ccccc1)c1ccc(Br)cc1`, the displacement was 4.7%. Consider `Cc1cc(C)cc(NCc2ccccn2)c1`, for which the displacement amounted to 24.9%.

With `c1ccc(CNc2ccccn2)cc1`, the displacement was determined as 7.1%.

Consider `CCCOc1cccc(C(=O)Nc2nc(-c3ccc(C)cc3)cs2)c1`, for which the displacement was -6.9%. To `COC(=O)c1cc(NC(=O)c2cc(I)ccc2Cl)cc(C(=O)OC)c1` belongs 12.9%; to `COc1ccc(C)cc1NS(=O)(=O)c1ccc(NC(C)=O)cc1`, 0.2%. In the case of `Cn1cnnc1Sc1nc2c(c(=O)n(C)c(=O)n2C)n1Cc1ccc(Cl)cc1Cl`, the displacement is 10.3%. In the case of `C=CCn1cc(C)c(=O)n(CC=C)c1=O`, the displacement was 9.5%. Take `COc1cc(NC(=O)COc2ccc(F)cc2)c(OC)cc1NC(C)=O`: the displacement was -2.3%. To `O=C(Nc1ccc2c(c1)ncn2-c1ccccc1)c1ccccc1` belongs -2%; to `CC1=C(C(=O)Nc2cc(Cl)ccc2C)C(c2ccc(N(C)C)cc2)NC(=S)N1` (stereo unspecified), 11.3%. To `S=C(NCCc1c[nH]c2ccccc12)Nc1ccc(Cl)cc1Cl` belongs -7.5%; to `C=C(C)CN1C(=O)c2ccccc2C1=O`, 4.5%; to `CCOC(=O)c1c[nH]c2ccc(OC)cc2c1=O`, 3.8%. To `CC(=O)c1ccc(NC(=O)COc2ccc(C)cc2)cc1` belongs 1.2%; to `O=C1CC(N(Cc2ccco2)C(=S)NCCc2ccccc2)C(=O)N1c1ccc(F)cc1` (stereo unspecified), 27.4%. For `Cc1ccc(OCC(=O)N/N=C\c2ccc[nH]2)cc1`, the displacement stood at 9.5%. Consider `N#Cc1c(N)c(C#N)c(-c2ccco2)c2c1CCCC2`, for which the displacement was -3.3%. Consider `CCOc1ccc(-n2nc3ccc(NC(=O)c4ccc([N+](=O)[O-])o4)cc3n2)cc1`, for which the displacement came to 8.7%. Take `CCn1c(O)c(/C=C2\C=Nc3ccccc32)sc1=S`: the displacement is -1%. With `CCCCS(=O)(=O)N1CN(S(=O)(=O)CCCC)C2NC(=O)NC21` (stereo unspecified) the figure was 1.2%. To `O=C(Nc1ccccc1F)c1cnccn1` belongs 7.5%. For `COc1ccc(N=Cc2c(C)[nH]n(-c3ccccc3)c2=O)cc1`, the displacement amounted to 1.2%.

`CCOc1ccccc1N1CCN(C(=O)c2ccncc2)CC1`: the displacement was -2.3%.

In the case of `O=C1C2=C(C(c3ccccc3)=NCCN2)C(c2ccc3c(c2)OCO3)N1c1ccccc1` (stereo unspecified), the displacement is -0.1%.

As to `Cc1ccc(N2C(=O)CC(N3CCc4ccccc4C3)C2=O)cc1` (stereo unspecified), the displacement came to 1.9%. With `CC(C)(CNC(c1ccccc1)c1ccccc1)NS(=O)(=O)c1ccc(Cl)cc1` the figure was 10.6%. To `Fc1cccc(NC(=S)NC(c2ccccc2)c2ccccc2)c1` belongs -3.9%; to `O=[N+]([O-])c1ccc(C=Nc2ccc(Br)cn2)o1`, 11.7%. In the case of `O=C(Nc1ccc2nc3c4ccccc4c4ccccc4c3nc2c1)N1CCOCC1`, the displacement was determined as 77.1%. For `COc1cc([N+](=O)[O-])ccc1N1C(=O)C2C3C=CC(C3=C(C)C)C2C1=O` (stereo unspecified), the displacement amounted to 13%.

With `COC(=O)c1ccc(/C=C2/C=C(c3ccc(Br)cc3)OC2=O)cc1`, the displacement was 11.9%. `NC(=O)C1CCN(C(=O)c2cccc(C#Cc3ccccc3)c2)CC1`: the displacement is -2.3%. Regarding `O=C(Nc1c(C(=O)N2CCCC2)cnn1-c1ccccc1)c1ccc(Br)cc1`, the displacement is -10.4%. As for `Cc1cc(C(=O)N2CCN(C)CC2)ccc1[N+](=O)[O-]`, the displacement came to 14.6%.

For the molecule `COc1ccc(C(=O)/C=C/c2cccc(OC)c2OC)cc1`, the displacement amounted to 0%.

Turning to `O=C1C2C3CCC(O3)C2C(=O)N1c1ccccn1` (stereo unspecified), the displacement turned out to be 15.9%. To `CN(C)c1ccc(-c2nc3sc4c(c3c(=O)[nH]2)CCCC4)cc1` belongs -12%. To `Cc1ccc(OCc2nnc(NC(=O)c3ccco3)s2)cc1` belongs 15.1%.

Consider `Cc1cccc(N2C(=O)c3cccc([N+](=O)[O-])c3C2=O)n1`, for which the displacement came to 6.1%. To `Cc1ccc(O)c(NC(=O)c2cc3nc(-c4ccc(F)cc4)cc(C(F)(F)F)n3n2)c1` belongs 4.5%; to `COc1cc(C=Nc2c(C)n(C)n(-c3ccccc3)c2=O)c([N+](=O)[O-])cc1OC`, 130%. Turning to `CON(C)c1nc(OCCNC(=O)COc2ccc(Cl)cc2Cl)nc(N(C)C)n1`, the displacement was -7.4%. With `S=C(Nc1ccc(Cl)cc1Cl)NC1CCCCC1` the figure was -6.9%. To `CCOC(=O)c1c(NC(=O)COc2ccc(Cl)cc2)sc(C(=O)N2CCCCC2)c1C` belongs 6%; to `COC(=O)CN1C(c2ccc(OC)cc2)Nc2ccc(Br)cc2C1c1ccccc1` (stereo unspecified), 11.2%. Regarding `Cc1oc2ccc(OCC(=O)C(C)(C)C)cc2c1C(=O)OC(C)C`, the displacement amounted to 5.2%. For `COc1cc(NC(=O)c2cccnc2)ccc1NC(=O)c1ccco1`, the displacement turned out to be 2.5%.

For the molecule `O=C(Nc1ccc(Br)cc1F)c1cc(-c2ccccc2)nc2ccccc12`, the displacement is 1.1%. With `Cc1onc(-c2c(Cl)cccc2Cl)c1C(=O)Nc1cc(Cl)ccc1Cl` the figure was 5.3%; with `CCCC(=O)NS(=O)(=O)c1ccc(NC(=O)c2ccc(Cl)cc2)cc1`, 12.1%. For the molecule `CN(C)c1ccc(NC(=O)COc2ccccc2Cl)cc1`, the displacement was -1.7%. In the case of `Cc1cc(Nc2cccc(O)c2)n2ncnc2n1`, the displacement turned out to be 10.1%. Regarding `O=C(O)c1ccc(N/C(=N\S(=O)(=O)c2ccc(Cl)cc2)c2ccccc2)cc1`, the displacement is 11%. Take `O=C(C#Cc1ccc([N+](=O)[O-])cc1)c1ccccc1`: the displacement was found to be 5.1%. On to `Cc1ccc(C(O)(CN(Cc2ccccc2)C(=O)c2ccccc2)c2ccccc2)cc1` (stereo unspecified), for which the displacement is -3.9%.

In the case of `CCOC(=O)c1c(NC(=O)c2ccc(Cl)c([N+](=O)[O-])c2)sc(C(=O)Nc2cc(C(F)(F)F)ccc2Cl)c1C`, the displacement turned out to be 13.7%. To `NC(=O)c1ccc[n+](CC(=O)OCC23CC4CC(CC(C4)C2)C3)c1` belongs 3.2%; to `COC(=O)C1=C(C)N(c2ccc(F)cc2)/C(=C/c2ccc(O)cc2)C1=O`, 1.7%; to `CC(NC(=O)c1ccccc1NC(=O)c1ccccc1F)c1ccccc1` (stereo unspecified), 5%. To `O=C(O)CN1C(=O)/C(=C\c2cccc3ccccc23)SC1=S` belongs -28%; to `O=S(=O)(c1ccc2c(c1)Cc1ccccc1-2)N1CCCCC1`, -14.2%; to `COc1cc([N+](=O)[O-])ccc1NC(=O)/C=C/c1ccc(OC)c(OC)c1`, -7%. Take `O=[N+]([O-])c1ccc(N2CCCCC2)nc1`: the displacement was 2.8%.

Regarding `Cc1ccc2[nH]c(C(=O)N/N=C/c3cccs3)c(-c3ccccc3)c2c1`, the displacement is -9.7%. To `Cc1c(Cl)cccc1N=Cc1ccc([N+](=O)[O-])o1` belongs 11.9%. With `O=C(O)COc1ccc2c(=O)c(-c3ccc(Cl)cc3)coc2c1` the figure was -2.6%; with `CN(C)CCCNC(=O)c1cccc(F)c1`, -6%; with `C/C(=N\NC(=O)C1CC1)c1cccnc1`, 2.7%. With `CC(C)(C)c1ccc(OCCn2cc(/C=C3/SC(=S)NC3=O)c3ccccc32)cc1`, the displacement came to 15.2%. Regarding `O=C1CC(N2CCN(c3ccc(Cl)cc3)CC2)C(=O)N1CCc1ccccc1` (stereo unspecified), the displacement was found to be 9.7%. `Cc1cc(C)c2oc(-c3ccc(C)c(NC(=O)c4cccc(Cl)c4Cl)c3)nc2c1`: the displacement is 8.7%.
